Data from paper PMC6919601, “Identification of Plasmodium dipeptidyl aminopeptidase allosteric inhibitors by high throughput screening” (PLoS ONE, 2019).
The campaign covered roughly 110,000 compounds. About 230 (0.21%) showed an effect of 50% or more. Some of the results follow.

Target: DPAP1 (Plasmodium falciparum, UniProt Q8IIJ9)
Assay: primary screen, percent inhibition; read by cleavage of a fluorogenic dipeptide substrate; higher = more effect of the substance
Parameters: species or system P. falciparum D10 trophozoite lysates; single well
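Also: 30 min substrate incubation versus DMSO and 10 µM JCP410 controls.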

Chain of DPAP1 (Q8IIJ9 whole entry, looked up): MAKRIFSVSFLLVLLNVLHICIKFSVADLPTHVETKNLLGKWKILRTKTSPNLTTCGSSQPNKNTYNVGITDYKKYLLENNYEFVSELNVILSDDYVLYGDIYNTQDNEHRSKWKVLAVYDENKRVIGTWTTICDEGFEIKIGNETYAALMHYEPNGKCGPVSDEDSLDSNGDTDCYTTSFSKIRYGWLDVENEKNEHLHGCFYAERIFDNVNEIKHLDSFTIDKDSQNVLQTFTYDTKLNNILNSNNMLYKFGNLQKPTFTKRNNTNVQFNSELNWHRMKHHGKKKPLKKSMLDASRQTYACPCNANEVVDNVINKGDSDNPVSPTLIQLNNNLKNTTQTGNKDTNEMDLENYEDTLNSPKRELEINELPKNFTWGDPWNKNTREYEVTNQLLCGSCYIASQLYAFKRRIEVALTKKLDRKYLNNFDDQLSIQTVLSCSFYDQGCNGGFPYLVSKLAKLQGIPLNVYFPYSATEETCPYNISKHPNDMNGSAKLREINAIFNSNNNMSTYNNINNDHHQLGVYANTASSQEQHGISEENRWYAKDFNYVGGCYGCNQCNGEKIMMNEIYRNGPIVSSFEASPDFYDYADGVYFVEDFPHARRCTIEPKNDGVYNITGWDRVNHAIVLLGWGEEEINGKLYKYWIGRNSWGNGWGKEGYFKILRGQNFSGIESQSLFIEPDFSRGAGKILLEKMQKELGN

| SMILES | % Inhibition @ 10 uM [%] |
| --- | --- |
| CC(C)(C)OC(=O)N1CCC(c2cc(O)n3ncc(C(=O)NC4CCCC4)c3n2)CC1 | -1.03 |
| COc1ccc(/C=C2\SC(=O)N(CC(=O)N3CCOCC3)C2=O)cc1Br | 4.22 |
| COc1ccc(C2(O)C[N+](c3ccc(Cl)cc3)=C3CCCCCN32)cc1 (stereo not shown) | -1.4 |
| COC(=O)c1ccc(C2C3=C(CC(C)(C)CC3=O)N(Cc3cccnc3)C3=C2C(=O)CC(C)(C)C3)cc1 | 1.91 |
| COCCNC(=O)C1CCN(c2nnc(C)c3c(C)n(-c4ccc(OC)cc4)nc23)CC1 | 3.23 |
| CN1CCN(CCCC(=O)c2ccc(F)cc2)CC1 | 2.23 |
| COc1cccc(C(C)NC(=O)c2cccc(OC)c2OC)c1 (stereo not shown) | 0.873 |
| N#CCCn1c2c(c3ccccc31)CCC2 | -4.58 |
| CC(C)(C)C(=O)CC(=O)Nc1cc([N+](=O)[O-])ccc1Cl | 4.74 |
| CC(C(=O)NCCCN(C)C1CCCCC1)n1ncn2cccc2c1=O (stereo not shown) | -5.95 |
| Cn1c(=O)c2c(nc3n2CCCN3C2CCCC2)n(C)c1=O | -5.35 |
| N#CCCn1c2c(c3ccccc31)CCCC2 | 1.44 |
| CCCNC(=O)CN(c1ccc(F)cc1)S(=O)(=O)c1ccc2c(c1)OCCO2 | 3.65 |
| Cc1cc(=O)n(C(C)C(=O)N2CCc3ccccc3C2)c2c1c(C)nn2-c1ccccc1 (stereo not shown) | 3.33 |
| Cc1ccc(-c2c(NC3CCCCCCC3)c(=O)c2=O)cc1 | -1.69 |
| Cc1ccc(S(=O)(=O)N(CC(=O)N2CCCCCC2)c2ccccc2Cl)cc1 | 3.06 |
| COc1cc(CNCc2ccccc2)ccc1OCCO | -1.63 |
| O=C1S/C(=C/c2cc3c(cc2Br)OCO3)C(=O)N1CN1CCOCC1 | -3.37 |
| Cc1ccc(C)c(N(CC(=O)N2CCN(c3ccccc3)CC2)S(=O)(=O)c2ccccc2)c1 | -2.94 |
| CCOP(C)(=O)CN1CCCCC1 (stereo not shown) | -2.77 |
| Cc1ccsc1CN1CCN(c2ccc(Cl)cc2)CC1 | -0.0404 |
| Cc1cc(C)nc(SCCN2CCCC2)n1 | 4.03 |

| SMILES | % Inhibition @ 10 uM [%] |
| --- | --- |
| C=CCNC(=O)CCCc1nnc2n3nc(-c4ccccc4)nc3c3ccccc3n12 | -1.21 |
| CC1(C)CC(=O)C2=C(C1)NC(=O)CC2c1cc2c(cc1Br)OCO2 (stereo not shown) | -7.98 |
| N#C/C(=C(/O)c1ccco1)c1nc2ccccc2[nH]1 | -0.142 |
| CCOC(=O)c1[nH]c2ccccc2c1-n1cccc1 | -0.0309 |
| CCCN(CCC)CCCNC(=O)Cc1noc2ccccc12 | -1.08 |
| CCc1c(O)n2nc(-c3ccccc3)ccc2[n+](-c2ccc(F)cc2)c1=O | -0.496 |
| O=C(C1CCN(c2nc3ccc(Br)cc3s2)CC1)N1CCC2(CC1)OCCO2 | -1.6 |
| O=C(CN1N=C(c2ccc(Cl)cc2)CCC1=O)NCCCN1CCC(Cc2ccccc2)CC1 | 3.79 |
| COc1ccc(OCCn2cnc3ccccc32)cc1 | -0.366 |
| CCn1cc(C2=NOC(C(=O)N3CCOCC3)C2)c(C)n1 (stereo not shown) | -1.37 |
| CC1=C(c2ccc(C)cc2)S(=O)(=O)N=C1NCCCN1CCC(N2CCCCC2)CC1 | -1.08 |
| CCOc1ccc2nc(N3CCCCC3)sc2c1 | -0.256 |
| Cc1nn(CC(=O)NCC2CCCO2)c(=O)c2c1sc1ccccc12 (stereo not shown) | -5.61 |
| Cc1ccc(-n2nc(C)c3c(C)c(CCC(=O)NC(C)C)c(C)nc32)cc1C | 0.953 |
| O=CN1CCN(Cc2c(F)cccc2Cl)CC1 | 7.28 |
| CCn1c(=O)sc2cc(NC(C)=O)ccc21 | -1.05 |
| COc1ccc(N2CCN(Cc3ccc(OC)c(O)c3)CC2)cc1 | 4.73 |
| CC(=O)NS(=O)(=O)c1ccc(NC(=O)c2ccc(C)c(C)c2)cc1 | -3.39 |
| COc1cc2c(cc1OC)CN(Cc1ccc([N+](=O)[O-])cc1)CC2 | 1.38 |
| Cc1cc(NS(=O)(=O)c2ccc(NC(=O)COc3cccc(C(C)C)c3)cc2)no1 | -13.6 |
| O=C1C2C3C=CC(CNc4ccc([N+](=O)[O-])cn4)(O3)C2C(=O)N1c1ccccc1 (stereo not shown) | -1.74 |
| Cn1c(=O)c2c(ncn2CC(=O)Nc2ccc(OC(F)(F)F)cc2)n(C)c1=O | -0.0619 |

| SMILES | % Inhibition @ 10 uM [%] |
| --- | --- |
| CC(C)CNC(=O)Cn1cnc2c1c(=O)n(C)c(=O)n2C | -2.73 |
| O=C(Nc1sc2c(c1C(=O)NCc1cccnc1)CCCC2)c1ccco1 | 3.91 |
| COc1ccc(-c2nc3scc(CCNC(=O)c4cc(OC)c(OC)c(OC)c4)n3n2)cc1 | 5.49 |
| O=C(COc1ccc(Br)cc1)NCCc1c[nH]c2ccccc12 | 1.63 |
| Nc1cccc(C(=O)Nc2ccccc2Cl)c1 | 5.64 |
| COC(=O)/C(C#N)=C/c1c(Oc2cc(C)cc(C)c2)nc2ccccn2c1=O | 2 |
| CC(=O)c1cc2c(cc1NC(=O)CCCC(=O)O)OCO2 | 0.983 |
| COc1cc(C(=O)Nc2nc(-c3ccc(C)cc3)cs2)c(Br)c(OC)c1OC | 2.17 |
| c1ccc2[nH]c(SCCSc3nc4ccccc4[nH]3)nc2c1 | -6.71 |
| Nc1c(C(=O)Nc2ccccn2)cnn1-c1ccccc1 | -3.25 |
| Cc1ccc(C(=O)Nc2ccc(N(C)C)cc2)cc1C | -2.74 |
| CN(CCNC(=O)CCC(=O)N1Cc2ccccc2Oc2ncccc21)C1CCCCC1 | 0.275 |
| Cc1ccccc1Cn1c(=O)n(CCC(=O)NCCc2ccc(Cl)cc2)c(=O)c2sccc21 | 1.23 |
| CC(=O)c1ccc(N2CCN(Cc3c(C)[nH]c4ccccc34)CC2)cc1 | 1.87 |
| Cn1cnnc1SCC(=O)c1ccc2c(c1)OCO2 | 5.38 |
| COc1ccc(C2NC(C(=O)O)CS2)cc1COc1cc(C)c(Cl)c(C)c1 (stereo not shown) | 9.35 |
| CC1=C(C(=O)OC2CCCCCC2)C(c2coc3ccccc3c2=O)C2=C(O)CCCC2=N1 (stereo not shown) | 2.25 |
| CC(C)(C)Nc1nc(NC2CCCCC2)nc(N2CCOCC2)n1 | -0.591 |
| Cc1cc(-c2nc(-c3ccncc3)no2)c2ccccc2n1 | 1.32 |
| Cc1sc2nc(SCCCC(=O)Nc3ccc(S(N)(=O)=O)cc3)nc(O)c2c1C | -1.64 |
